Source: patent publication US5393897A, “Isolation and structure of spongistatins 5,7,8 and 9” (Arizona Board of Regents acting on behalf of Arizona State …, priority 1993, dated 1995)

Test system: P388
Conditions: mouse, in vivo, ip, 40 μg/kg/dose, Q1D × 9, female mice
Text: Tumor system: P388; implant: IP 1.0 E + 06 cells; host: CD2FL female mice
median day of death: 10; schedule: IP, Q1D × 9 (1); vehicle: 5% ETO
+ distilled water; % ILS: % increase in life span over the controls.

Compound: C=C(Cl)/C=C/C(O)CC(=C)CC1OC2C(C)C(OC(=O)CC3CC(OC(C)=O)CC4(CC(C)(O)CC(CC(=C)C(C)C(OC(C)=O)C(C)C(=O)CC5CC(OC)CC6(CC(O)CC(/C=C\CCCC7OC(O)(CC(O)C7C)C2O)O6)O5)O4)O3)C1O (stereo not shown) [spongistatin 1, reference compound]
- toxicity: toxic
